# Results published in PubChem BioAssay AID624418 (National Center for Advancing Translational Sciences (NCATS), 2012).
# In all, about 410,000 compounds went through this assay and about 530 (0.13%) were called active. The shares of active, inactive and inconclusive entries below differ from those in the screen. The call rests on the fitted dose curve; in most records, active means well fitted inhibition curve with a large enough effect; inconclusive means small, poorly fitted or top-dose-only effect, or another doubt; inactive means no such curve, though single readings can be large or run the other way. Potencies of inconclusive entries are doubtful fits and often do not repeat.
# Experiment: qHTS of GLP-1 Receptor Inverse Agonists: Cytotox Screen
# Settings: HEK293 cAMP-luciferase reporter cells, luminescence, 24 h; activity change, negative = inhibition: at 38.3 µM (top of the series) unless noted
# How it was run: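 MLSMR compounds, 24 hr on cells at 37 deg C/5% CO2; luminescence after luciferase reagent (12 min RT). Inhibition counted as the undesired cytotoxic outcome.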
# On the % scale 0 is the no-effect control and ±100 the full control effect; potency means the concentration at half of the fitted maximal effect.
Compound,Potency,"activity change, negative = inhibition"
CN(C)S(=O)(=O)c1cccc(C(=O)NCCNC(=O)c2cccc(S(=O)(=O)N(C)C)c2)c1,"inconclusive: 28.2 µM [inhibitor, single point]",–
O=C(NCCN1CCN(Cc2ccccc2)CC1)Nc1cc(Cl)cc(Cl)c1,"inconclusive: 11.2 µM [inhibitor, single point]",–
COCCCn1c(=O)c2ccccc2n(CC(=O)Nc2ccc3c(c2)OCCO3)c1=O,"inconclusive: 12.6 µM [inhibitor, single point]",–
COc1ccc(C(NC(=O)C2CCN(Cc3ccc(Oc4ccccc4)cc3)CC2)c2ccccn2)cc1 (stereo not drawn),–,inactive: -9.6%
CCN(CC)c1ccc(/C=C2\C(=O)c3ccc(C(=O)O)cc3C2=O)cc1,–,inactive: 1.59%
Cc1ccc(C)c(CN2C(=O)C3(c4ccccc42)N(c2ccc(Cl)cc2)C(=O)CS3(=O)=O)c1 (stereo not drawn),–,inactive: 10.5%
CC1CC(C)CN(S(=O)(=O)c2ccc(C(=O)NCc3ccc4c(c3)OCO4)cc2)C1 (stereo not drawn),–,inactive: 22.2%
CC(=O)N(Cc1cc2c(C)cc(C)cc2[nH]c1=O)C1CCCCC1,"inconclusive: 28.2 µM [inhibitor, single point]",–
CCOc1cccc(C2CC(=O)Nc3cc4c(cc32)OCCO4)c1 (stereo not drawn),"inconclusive: 5.01 µM [inhibitor, partial curve]",–
O=C(NCc1ccccc1)C1CCCN(S(=O)(=O)c2ccc(Br)cc2)C1 (stereo not drawn),–,inactive: -10.4%
CC(OCCN1CCCC1)(c1ccc(F)cc1)c1ccc(F)cc1,"inconclusive: 11.2 µM [inhibitor, single point]",–
CC1CCN(c2ccccc2NC(=S)NC(=O)C(C)(C)C)CC1,"inconclusive: 28.2 µM [inhibitor, single point]",–
CCOC(=O)/C(=C\C=C1/Sc2cc(OCC)c(OCC)cc2N1CC)C(C)=O,–,inactive: 5.78%
CC(=O)Nc1ccc(CN2CCc3c([nH]c4ccccc34)C2c2ccccn2)cc1 (stereo not drawn),"inconclusive: 12.6 µM [inhibitor, single point]",–
Cc1ccc(NC(=O)c2ccc(NC(=O)c3ccccc3)cc2)cc1C,"inconclusive: 12.6 µM [inhibitor, single point]",–
Cc1nn2c(nc(N3CCOCC3)c3ccccc32)c1C=C(C#N)C#N,–,inactive: 8.15%
Cc1cccc(NC(=O)Cn2c(=O)ccc3cc(S(=O)(=O)N4CCCC4)ccc32)c1C,–,inactive: -8.85%
Oc1c(CN2CCc3ccccc3C2)cc(Cl)c2cccnc12,"inconclusive: 1.12 µM [inhibitor, full curve, poor fit]",–
O=C(O)c1cccnc1SCC(=O)N1CCCc2ccccc21,"inconclusive: 10 µM [inhibitor, single point]",–
O=C(N/N=C\c1ccc([N+](=O)[O-])s1)c1cncc(Br)c1,"inconclusive: 11.2 µM [inhibitor, partial curve]",–
COc1ccc(S(=O)(=O)Nc2ccc3c(c2)C(=O)N([C@H](C)CO)C[C@H](C)[C@@H](CN(C)S(=O)(=O)c2ccc(F)cc2)O3)cc1,"inconclusive: 10 µM [inhibitor, single point]",–

Compound,Potency,"activity change, negative = inhibition"
Cc1nn(-c2ccccn2)c2c1C(c1ccccc1Cl)C1=C(N2)c2ccccc2C1=O (stereo not drawn),"inconclusive: 8.91 µM [inhibitor, partial curve, poor fit]",–
c1ccc(C2=Nn3c(Cn4nnc5ccccc54)nnc3SC2)cc1,"inconclusive: 10 µM [inhibitor, partial curve]",–
CCOC(=O)c1sc2nc(CSc3ccccc3)nc(N3CCCN(C)CC3)c2c1C,"inconclusive: 28.2 µM [inhibitor, single point]",–
Cc1ccc(NC(=O)CN2C(=O)NC3(CCCCCC3)C2=O)cc1Cl,"inconclusive: 28.2 µM [inhibitor, single point]",–
CC(=O)Nc1ccc(NC(=O)CSc2ccc3nnc(-c4cccnc4)n3n2)cc1,–,inactive: 2.54%
COc1cccc(C(c2nnnn2C2CCCCC2)N2CCN(C/C=C/c3ccccc3)CC2)c1OC (stereo not drawn),"inconclusive: 28.2 µM [inhibitor, single point]",–
Cc1ccc(C)c(CN2CCC(CNC(=O)Nc3ccc(F)c(Cl)c3)CC2)c1,"inconclusive: 10 µM [inhibitor, partial curve, poor fit]",–
COc1ccc(-c2cc(C(=O)Oc3ccc([N+](=O)[O-])cc3)c3ccccc3n2)cc1,"inconclusive: 28.2 µM [inhibitor, single point]",–
COc1ccccc1-n1c(=O)[nH]c2c(C(N)=O)nc(C3CCCCC3)nc21,–,inactive: -20.6%
CCOC(=O)CN(C(=O)CSc1nnc(COc2ccc(OC)cc2)n1CC)c1ccccc1,"inconclusive: 0.501 µM [inhibitor, full curve, poor fit]",–
COc1ccc(NC(=O)C(c2cc3ccccc3o2)n2c(=O)c(-c3cc4ccccc4[nH]3)nc3ccccc32)cc1 (stereo not drawn),–,inactive: 459%
CCCc1cnc(NCCNCC(O)COc2ccc(Cl)c(Cl)c2)nc1 (stereo not drawn),"inconclusive: 28.2 µM [inhibitor, single point]",–
Cc1ccc(NC(=O)c2csc(-c3ccccc3)c2C)cc1,–,inactive: -19.4%
CCCn1c(=O)c2sccc2n2c(CCCC(=O)Nc3ccc(Oc4ccc(Cl)cc4)cc3)nnc12,"inconclusive: 3.16 µM [inhibitor, partial curve]",–
O=C(CCCN1C(=O)/C(=C/c2ccccc2)SC1=S)Nc1cccc(O)c1,"inconclusive: 22.4 µM [inhibitor, single point]",–
COCCNC(=S)NC12CC3CC(CC(C3)C1)C2,"inconclusive: 28.2 µM [inhibitor, single point]",–
O=[N+]([O-])c1ccc(N2CCN(CCO)CC2)cc1Sc1nc2ccccc2[nH]1,"inconclusive: 11.2 µM [inhibitor, single point]",–
CCCCn1c(CNC(=O)C23CC4CC(CC(C4)C2)C3)nnc1SCC(=O)Nc1nnc(C)s1,–,inactive: -15.4%
CN(C)c1nc(=Nc2cccc(Cl)c2)ss1,"inconclusive: 0.501 µM [inhibitor, full curve, poor fit]",–
COc1ccc(C(=O)O/N=C(\N)Cc2ccc([N+](=O)[O-])cc2)c(OC)c1,"inconclusive: 12.6 µM [inhibitor, single point]",–
O=C1NCC(c2ccccc2)C1C(=O)N/N=C\c1ccc(-c2ccc(Cl)c(Cl)c2)o1 (stereo not drawn),"inconclusive: 10 µM [inhibitor, partial curve, poor fit]",–

Compound,Potency,"activity change, negative = inhibition"
COc1ccc(-c2noc(CCC(=O)Nc3ccc(C(F)(F)F)cc3)n2)cc1,–,inactive: -7.14%
Cc1ccc(C(=O)Nc2nc(COc3ccccc3)cs2)s1,"inconclusive: 28.2 µM [inhibitor, single point]",–
COc1ccccc1NS(=O)(=O)c1cccc(C(=O)N/N=C/c2ccc([N+](=O)[O-])o2)c1,"inconclusive: 11.2 µM [inhibitor, single point]",–
COc1ccc(C2C(C#N)=C(N)N(Nc3ccccc3)C3=C2C(=O)CC(C)(C)C3)cc1C (stereo not drawn),–,inactive: 162%
Cc1ccc(C)c(NS(=O)(=O)c2cc(C(=O)NCc3ccccn3)ccc2C)c1,"inconclusive: 12.6 µM [inhibitor, single point]",–
CC1(C)CC(=O)C(N=Nc2cc(Cl)c(Cl)c(Cl)c2)=C(O)C1,–,inactive: -19.9%
Cn1c(=O)n(CCc2ccccc2)c(=O)c2c1nc1n2CCN1Cc1ccco1,"inconclusive: 10 µM [inhibitor, partial curve, poor fit]",–
COc1cccc(N2CCN(C(=O)CN(C)S(=O)(=O)c3ccc4c(c3)CCC(=O)N4)CC2)c1,"inconclusive: 0.501 µM [inhibitor, full curve, poor fit]",–
CC1CCc2c(sc(NC(=O)C3c4ccccc4Oc4ccccc43)c2C(N)=O)C1 (stereo not drawn),"inconclusive: 10 µM [inhibitor, single point]",–
Cc1cc(C)cc(NS(=O)(=O)CCCS(=O)(=O)Nc2cc(C)cc(C)c2)c1,"inconclusive: 12.6 µM [inhibitor, single point]",–
O=C1CCN(Cc2ccccc2)CCN1[C@H](COc1ccccc1)Cc1ccccc1,"inconclusive: 28.2 µM [inhibitor, single point]",–
CCOc1ccc(CN2C(=O)c3ccccc3Sc3ccc(C(=O)NCCCN4CCOCC4)cc32)cc1,"inconclusive: 11.2 µM [inhibitor, single point]",–
COc1ccc(S(=O)(=O)N(C)C[C@H]2Oc3ccc(NC(=O)NC(C)C)cc3C(=O)N([C@H](C)CO)C[C@@H]2C)cc1,"inconclusive: 1.78 µM [inhibitor, full curve, poor fit]",–
COc1cccc(/C=N/NC(=S)NCc2ccco2)c1OC,"inconclusive: 10 µM [inhibitor, partial curve, poor fit]",–
CCN(CC)c1ccc(/C=N/NC(=O)c2cnccn2)c(O)c1,"inconclusive: 7.08 µM [inhibitor, partial curve, poor fit]",–
Cc1cc(C(=O)CCl)c(C)n1CCc1ccc(Cl)cc1,"inconclusive: 10 µM [inhibitor, single point]",–
CCN(Cc1ccccc1)S(=O)(=O)c1ccc(C(=O)N(CCCN(C)C)c2nc3cc4c(cc3s2)OCO4)cc1,"inconclusive: 31.6 µM [inhibitor, partial curve, poor fit]",–
N#Cc1c(C(F)(F)F)cc(-c2ccco2)nc1SCc1ccccn1,"inconclusive: 28.2 µM [inhibitor, single point]",–
CCOC(=O)CCCSc1nnc(CCCCCN2C(=O)c3cccc4cccc(c34)C2=O)o1,–,inactive: 6.02%
CC1=NN(c2ccccc2)C(=O)C1N=Nc1cccc(O)c1 (stereo not drawn),"inconclusive: 28.2 µM [inhibitor, single point]",–
c1ccc2c(c1)nc(NC1CCCCC1)c1nncn12,"inconclusive: 1 µM [inhibitor, partial curve, poor fit]",–
